# The whole screen tested about 310,000 compounds, of which about 14,000 (4.5%) showed an effect of 50% or more. The effect is printed as a negative number. The list shows a part of the results.
# Molecular target: human ether-à-go-go-related gene (hERG) potassium channel (human, UniProt Q12809)
# Test: primary screen, population patch clamp on CHO cells stably expressing hERG
# 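Further: peak tail current of the secondary pulse compared with the same well before compound.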
# Sequence of human ether-à-go-go-related gene (hERG) potassium channel (Q12809 whole entry, looked up): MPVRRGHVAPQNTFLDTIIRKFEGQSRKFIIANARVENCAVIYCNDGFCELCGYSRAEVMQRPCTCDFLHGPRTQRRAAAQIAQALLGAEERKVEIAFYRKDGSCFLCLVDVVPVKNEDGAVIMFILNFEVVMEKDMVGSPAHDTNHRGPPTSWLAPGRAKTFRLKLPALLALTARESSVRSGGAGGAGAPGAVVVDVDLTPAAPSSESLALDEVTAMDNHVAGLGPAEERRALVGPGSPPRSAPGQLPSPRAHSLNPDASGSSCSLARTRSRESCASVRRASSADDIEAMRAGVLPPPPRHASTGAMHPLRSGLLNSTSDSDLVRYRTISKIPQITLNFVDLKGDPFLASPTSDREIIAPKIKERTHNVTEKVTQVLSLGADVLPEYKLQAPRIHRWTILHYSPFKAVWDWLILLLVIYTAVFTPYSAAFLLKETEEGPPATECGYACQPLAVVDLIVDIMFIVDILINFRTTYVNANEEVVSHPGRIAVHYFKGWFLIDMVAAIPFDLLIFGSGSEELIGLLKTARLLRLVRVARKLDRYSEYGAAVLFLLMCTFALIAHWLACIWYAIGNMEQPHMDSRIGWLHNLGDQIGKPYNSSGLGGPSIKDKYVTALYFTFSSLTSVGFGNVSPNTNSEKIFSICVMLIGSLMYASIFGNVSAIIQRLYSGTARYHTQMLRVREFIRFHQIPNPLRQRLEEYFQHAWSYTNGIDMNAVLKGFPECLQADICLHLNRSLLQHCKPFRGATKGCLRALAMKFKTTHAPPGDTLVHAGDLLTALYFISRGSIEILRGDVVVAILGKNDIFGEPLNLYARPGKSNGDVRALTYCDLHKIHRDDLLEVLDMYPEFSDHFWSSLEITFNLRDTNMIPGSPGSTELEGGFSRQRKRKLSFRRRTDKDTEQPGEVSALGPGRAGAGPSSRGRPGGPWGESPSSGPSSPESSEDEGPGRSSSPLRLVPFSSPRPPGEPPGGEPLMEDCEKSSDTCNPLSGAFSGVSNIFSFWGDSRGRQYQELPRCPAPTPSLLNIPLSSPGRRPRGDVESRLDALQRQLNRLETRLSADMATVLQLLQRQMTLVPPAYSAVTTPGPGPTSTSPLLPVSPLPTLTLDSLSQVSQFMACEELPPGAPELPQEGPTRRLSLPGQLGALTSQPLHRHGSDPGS
row,SMILES,"hERG current change (%, negative = inhibition) at 10uM [%]"
1,O=C(N/N=C/c1cccnc1)c1ccccc1OCc1ccc(Br)cc1,-52.6
2,CSc1ccc(CNc2ccccn2)cc1,-16.7
3,CN(CCC#N)C(=O)COC(=O)[C@H](Cc1ccccc1)N1C(=O)c2ccccc2C1=O,-2.25
4,CCCCn1c2nc3ccccc3nc2c2c(=O)n(CCC)cnc21,2.04
5,C=CCOc1ccccc1CN1CCC(Oc2ccc(C(=O)N3CCCC3)cc2)CC1,-41.8
6,COc1ccccc1NC(=O)C1CCCN(S(=O)(=O)c2cnc[nH]2)C1 (centres unmarked),21.6
7,O=C(c1cccc(F)c1)N1CCN(C(=O)c2cc3nc(-c4ccco4)cc(C(F)(F)F)n3n2)CC1,-16.7
8,Cc1nnc(NC(=O)c2ccccc2C(=O)O)s1,9.82
9,C#Cc1ccc([C@@H]2C=C(C(=O)NCc3ccccc3)O[C@H](OCC)[C@H]2CCCO)cc1,-18.4
10,COc1cccc(CN2CC(C(=O)N(C)C3CCOCC3)CCC2=O)c1 (centres unmarked),10.8
11,Cc1ccc(CC(=O)NCC(O)c2ccccc2)cc1 (centres unmarked),10.2
12,CCN1CCN(C(=O)CN2C(=O)COc3ccc(C)cc32)CC1,13.7
13,O=C(O)/C=C/C(=O)NNC(=O)c1ccc(Cl)cc1Cl,11.7
14,Cc1occc1C(=O)N1CCCC(CO)(Cc2ccc(F)cc2F)C1 (centres unmarked),-13.6
15,CN=C1SC(CC(=O)NCCc2ccc(OC)c(OC)c2)C(=O)N1C (centres unmarked),7.39
16,ONc1cccnc1-n1nc(C(F)(F)F)cc1C(F)(F)F,11.9
17,Cc1c(C(=O)N2CCOCC2)cc(C(C)(C)C)n1-c1ccccc1,-7.58
18,CC(=O)Nc1ccc(/C=C(\C#N)C(=O)NCc2ccccc2)cc1,11.8
19,O=C1CCCC(c2ccccc2)N1 (centres unmarked),-4.84
20,Cc1nnc(SCC(=O)Nc2ccc3c(c2)OCO3)[nH]c1=O,21.9
21,Cc1cc(Br)ccc1NC(=O)CCS(=O)(=O)c1cccc2nonc12,20.3
22,O=C(N/N=C/c1ccc([N+](=O)[O-])o1)c1sc2ccccc2c1Cl,-22.6
23,c1ccc2c(c1)nc1n2CCN1CCNC1CCCCC1,-28.6

row,SMILES,"hERG current change (%, negative = inhibition) at 10uM [%]"
1,Cc1cc(C(=O)COc2cccc3cccnc23)c(C)n1C,10.8
2,COc1ccc(Cn2c(=O)c3cccnc3n(Cc3ccc([N+](=O)[O-])cc3)c2=O)cc1,-5.45
3,Cc1nc(-c2ccc(S(=O)(=O)Nc3cccc(Cl)c3)cc2)co1,25.5
4,Cc1ccc2nc(-c3ccccc3)nc(SC(C)C(=O)NCc3cccs3)c2c1 (centres unmarked),11.7
5,Cc1cc(=O)[nH]c(SCC(=O)c2ccc(C)c(C)c2)n1,16.2
6,CCOc1ccc(S(=O)(=O)NC2CCCCC2C)cc1 (centres unmarked),-16.7
7,O=C(c1ccc(Cl)s1)N1CCN(c2ccccc2)CC1,-26.5
8,CC(=O)N1CC(C)Sc2ccc(S(=O)(=O)NC(C)c3ccccc3)cc21 (centres unmarked),3.27
9,COc1ccccc1C(=O)Nc1nc2cc3c(cc2s1)OCCO3,9.66
10,Cc1cccc(N(CC(=O)NCCC2=CCCCC2)S(C)(=O)=O)c1C,-22.8
11,Cc1nc2ccccc2c(=O)n1NC(=O)C1CC1,16.3
12,O=C(Nc1ccccc1-c1nnc(SCc2ccccc2Cl)o1)c1ccccc1,-6.61
13,CC(C)(C)OC(=O)NCCCCCNC(=O)c1[nH]cnc1C(=O)Nc1ccccc1,-53.2
14,COc1cccc(C(O)c2cnc(C(C)C)n2C)c1OC (centres unmarked),12.8
15,Cc1ccc(CNC(=O)C2CCCN(c3cnccn3)C2)cc1 (centres unmarked),-40
16,CC(=O)n1cc([C@@H]2C=C(C(=O)N3CCN(C)CC3)O[C@H](OCc3ccc(CO)cc3)C2)c2ccccc21,-41.7
17,Cc1ccc(C)c(S(=O)(=O)Nc2cc(SCC(=O)O)c(O)c3ccccc23)c1,5.34
18,COc1ccc(S(=O)(=O)NC2CCc3ccccc32)cc1OC (centres unmarked),4.55
19,O=C1NC2(CCCc3ccccc32)C(=O)N1CCOc1ccc(Br)cc1 (centres unmarked),-7.68
20,CCOC(=O)C1(CCc2ccccc2)CCN(C(=O)CN2C(=O)CSC2=O)CC1,-23.3
21,O=C(COC(=O)CCc1c[nH]c2ccccc12)NCc1ccc2c(c1)OCO2,13.2
22,O=C(CSC1=NCCS1)Nc1cccc2ccccc12,2.65
23,O=C(COc1ccc2c3c(c(=O)oc2c1)CCC3)Nc1ccc(CCO)cc1,21.2

row,SMILES,"hERG current change (%, negative = inhibition) at 10uM [%]"
1,Cc1nc(C/C(=N\N)c2ccc(O)cc2O)cs1,5.58
2,Cc1cc(CN(C)C(=O)c2ccc3nc(Cc4ccccc4F)oc3c2)n[nH]1,1.74
3,CCOCCCNC(=O)C(c1ccc(Cl)cc1)N(Cc1ccc2c(c1)OCO2)C(=O)CNC(C)=O (centres unmarked),12.3
4,Cl.O=C(CN1CCCCCC1)Nc1ccc(Oc2ccccc2)cc1,-78.6
5,COc1cccc(N2CCN(S(=O)(=O)c3cn(C)cn3)CC2)c1,20.8
6,CCc1ccc(/C=C/C(=O)C2C(=O)c3ccccc3C2=O)cc1,6.34
7,CCS(=O)(=O)C(=C1Nc2ccccc2N1)S(=O)(=O)CC,15.1
8,CNC(=O)Nc1ccc2snnc2c1,17.6
9,Cc1ccc(S(=O)(=O)NC(Cc2ccccc2)C(=O)O)cc1C (centres unmarked),19.6
10,Clc1ccc(-c2noc(CSc3nnc(Cc4cccs4)n3-c3ccccc3)n2)cc1,5.37
11,COCC(=O)Nc1c(C(=O)N2CCCC2)oc2ccccc12,1.46
12,C/C(=N\N=C1\NC(=O)CC(C(=O)O)S1)c1ccc(F)cc1 (centres unmarked),0.193
13,CCc1ccc(C(=O)c2cc3ccc(O)cc3oc2=O)cc1,-0.0727
14,CCOC(=O)c1cc2sc(C)cc2n1CC(=O)NCCc1ccccc1,7.12
15,CCOC(=O)c1c(S(=O)(=O)N(C)Cc2ccccc2)c(C)n(C)c1C,-6.14
16,CN(C)CCCN(C(=O)c1ccc(S(=O)(=O)N2CCOCC2)cc1)c1nc2ccc(F)cc2s1.Cl,-58.7
17,O=C(Cc1ccc(S(=O)(=O)N2CCCC2)s1)N1CCN(c2ccccc2)CC1,-28.4
18,CCc1cccc2c(C(=O)CSc3nnc(-c4ccoc4C)n3C)c[nH]c12,-4.21
19,O=C(O)c1ccc(S(=O)(=O)c2ccc3c(c2)C(=O)N(NC(=O)c2ccncc2)C3=O)cc1,3.42
20,CC(C)(C)n1nnnc1C(c1cccc(C(F)(F)F)c1)N1CCC(O)CC1 (centres unmarked),-12.5
21,CCOC(=O)Nc1cccc(Cl)c1C,2.28
22,CC1(c2ccc(OC(F)F)cc2)NC(=O)N(CC(=O)c2ccc3c(c2)OCO3)C1=O (centres unmarked),-44.1
23,CCO[C@H]1OC(C(=O)Nc2ccccc2)=C[C@@H](c2csc3ccccc23)[C@@H]1CCCO,-9.47

row,SMILES,"hERG current change (%, negative = inhibition) at 10uM [%]"
1,COc1ccccc1N1CCN(C(=O)C(C)CS(=O)(=O)c2ccc3c(c2)NC(=O)CS3)CC1 (centres unmarked),4.07
2,CC(=O)Nc1ccc(NC(=O)C(C)OC(=O)C2CCCC2)cc1 (centres unmarked),14.9
3,NC(=O)c1cc2cc(Cl)ccc2oc1=O,11.8
4,Cl.c1ccc(CSCc2cn3ccccc3n2)cc1,2.98
5,O=C(C[n+]1cc(Br)cc2ccccc21)c1ccc(F)cc1.[Br-],-41.6
6,COc1ccc(C2C(C(=O)c3ccco3)=C(O)C(=O)N2Cc2cccnc2)cc1OC (centres unmarked),8.4
7,Cc1ccc(C2C(C#N)=C(N)N(c3cccnc3)C3=C2C(=O)CCC3)s1 (centres unmarked),-0.707
8,O=C(COC(=O)C1CC(O)CN1C(=O)Oc1ccccc1)c1ccc(Br)cc1 (centres unmarked),-20.8
9,Cc1cccc(NC(=S)NCc2ccc3c(c2)OCO3)c1,-9.62
10,O=C(Nc1ccc(Cl)cc1C(=O)N1CCCCC1)c1ccco1,10.9
11,COC(C[C@@H](O)C[C@@H](O)[C@@H](C)OCc1ccccc1)OC,12.5
12,Cc1ccccc1NC(=O)c1ccccc1NS(=O)(=O)c1cccc2cccnc12,0.178
13,O=C(CSc1nnc(-c2ccc(F)cc2)n1CC1CCCO1)NCc1ccco1 (centres unmarked),13.2
14,NC(=O)NC(CC(=O)NCCCc1ccccc1)c1ccc(Cl)cc1 (centres unmarked),15.3
15,O=C(CSc1nnc(-c2ccccc2Cl)o1)Oc1ccc(Br)cc1,38.5
16,O=C(/C=C/c1cccnc1)c1cccc(O)c1,5.9
17,O=C(Nc1nc2c(s1)CCCC2)c1cccnc1,2.81
18,CCC(=O)Nc1ccc(Oc2ccc(NC(=O)CC)c(NC(=O)CC)c2)cc1,2.52
19,COc1ccc(-c2nnc(SCC(N)=O)n2N)cc1,6.29
20,CCc1cc(C(=O)N2CCN(c3ncc(C(F)(F)F)cc3Cl)CC2)sc1C,-3.1
